{
  "source": "paper PMC4336329",
  "about": "(PLoS ONE, 2015)",
  "note": "About 2,200 (0.71%) of roughly 310,000 compounds showed an effect of 50% or more. The effect is printed as a negative number. The list shows a part of the results.",
  "data": [
    {"biological_target": "human ether-à-go-go-related gene (hERG) potassium channel (human, UniProt Q12809)", "sequence (Q12809 whole entry, looked up)": "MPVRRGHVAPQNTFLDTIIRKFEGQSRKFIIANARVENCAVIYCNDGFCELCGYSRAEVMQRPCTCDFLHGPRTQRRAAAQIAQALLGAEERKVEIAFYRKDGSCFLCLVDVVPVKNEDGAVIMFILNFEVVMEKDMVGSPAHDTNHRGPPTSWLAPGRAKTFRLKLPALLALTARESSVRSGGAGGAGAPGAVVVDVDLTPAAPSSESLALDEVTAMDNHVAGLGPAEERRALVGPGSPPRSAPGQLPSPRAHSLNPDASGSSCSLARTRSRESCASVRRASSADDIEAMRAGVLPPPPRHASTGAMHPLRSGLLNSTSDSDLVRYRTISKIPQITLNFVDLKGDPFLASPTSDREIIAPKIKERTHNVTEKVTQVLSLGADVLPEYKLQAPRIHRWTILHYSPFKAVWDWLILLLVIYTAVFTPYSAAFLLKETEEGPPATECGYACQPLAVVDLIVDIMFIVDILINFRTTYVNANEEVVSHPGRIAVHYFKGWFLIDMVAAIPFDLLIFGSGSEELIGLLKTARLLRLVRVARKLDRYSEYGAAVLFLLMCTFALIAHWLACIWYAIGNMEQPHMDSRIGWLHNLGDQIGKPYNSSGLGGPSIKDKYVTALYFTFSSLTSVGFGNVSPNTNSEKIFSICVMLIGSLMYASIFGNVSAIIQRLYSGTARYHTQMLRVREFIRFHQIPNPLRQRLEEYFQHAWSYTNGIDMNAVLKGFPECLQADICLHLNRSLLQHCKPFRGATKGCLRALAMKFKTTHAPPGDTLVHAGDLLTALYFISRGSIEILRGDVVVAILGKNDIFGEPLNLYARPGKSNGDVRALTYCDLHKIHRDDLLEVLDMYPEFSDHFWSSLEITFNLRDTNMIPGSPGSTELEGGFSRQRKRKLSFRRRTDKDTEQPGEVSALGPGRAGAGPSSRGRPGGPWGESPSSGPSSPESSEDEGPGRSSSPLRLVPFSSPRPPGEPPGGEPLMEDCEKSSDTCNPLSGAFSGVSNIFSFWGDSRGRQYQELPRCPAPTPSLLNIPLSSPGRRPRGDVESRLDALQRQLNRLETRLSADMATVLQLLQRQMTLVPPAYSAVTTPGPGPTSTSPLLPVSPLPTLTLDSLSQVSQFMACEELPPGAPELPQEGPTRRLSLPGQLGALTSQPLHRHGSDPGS", "assay": "primary screen, population patch clamp on CHO cells stably expressing hERG", "units": {"hERG current change (%, negative = inhibition) at 1uM": "%"}, "values": [
      {"smiles": "O=C(O)CCc1nc2cccnc2n1Cc1ccccc1", "hERG current change (%, negative = inhibition) at 1uM": 1.07},
      {"smiles": "CCc1noc(C)c1C(=O)N1CCCC(N2CCN(c3ccc(F)cc3)CC2)C1", "note": "(centres unmarked)", "hERG current change (%, negative = inhibition) at 1uM": -2.61},
      {"smiles": "O=C(COC(=O)c1ccccc1NC(=O)c1ccco1)NCc1ccc2c(c1)OCO2", "hERG current change (%, negative = inhibition) at 1uM": 2.27},
      {"smiles": "O=C(CSc1nc(C(F)(F)F)cc(=O)[nH]1)N1CCC(Cc2ccccc2)CC1", "hERG current change (%, negative = inhibition) at 1uM": 5.3},
      {"smiles": "CN(C)C(=O)N1CCCC(C(=O)NCc2ccccc2Cl)C1", "note": "(centres unmarked)", "hERG current change (%, negative = inhibition) at 1uM": -3.61},
      {"smiles": "CCCCOC(=O)C1Cc2ccccc2C(=O)O1", "note": "(centres unmarked)", "hERG current change (%, negative = inhibition) at 1uM": -2.84},
      {"smiles": "CN(C)C(CNC(=O)c1ccc(NS(=O)(=O)c2ccc3[nH]c(=O)[nH]c3c2)cc1)c1ccccc1", "note": "(centres unmarked)", "hERG current change (%, negative = inhibition) at 1uM": 5},
      {"smiles": "COc1ccc(OCc2cc(C(=O)N3C[C@@H](C)O[C@@H](C)C3)no2)c(Cl)c1", "hERG current change (%, negative = inhibition) at 1uM": 10.1},
      {"smiles": "CCOC(=O)N1CCC(NC(=O)CSCc2nc(-c3ccc(OCC)cc3)oc2C)CC1", "hERG current change (%, negative = inhibition) at 1uM": -3.41},
      {"smiles": "O=C(NCc1ccco1)C(c1cccnc1)N(C(=O)Cn1nnc2ccccc21)c1ccc(F)cc1", "note": "(centres unmarked)", "hERG current change (%, negative = inhibition) at 1uM": 13.5},
      {"smiles": "Cc1oc2cc(O)ccc2c(=O)c1Oc1ccc2ccccc2c1", "hERG current change (%, negative = inhibition) at 1uM": -0.271},
      {"smiles": "O=C(CN1CCN(c2ccccc2O)CC1)Nc1ccccc1C(=O)NCCc1ccccc1", "hERG current change (%, negative = inhibition) at 1uM": 26.8},
      {"smiles": "Cc1ccc(NC(=O)CS(=O)CC(=O)N2CCN(c3ccccc3)CC2)cc1", "note": "(centres unmarked)", "hERG current change (%, negative = inhibition) at 1uM": 11.6},
      {"smiles": "Cc1ccc(NS(=O)(=O)N2CCOCC2)c(C)c1", "hERG current change (%, negative = inhibition) at 1uM": 10.3},
      {"smiles": "CC(C)Oc1ccc(CNC(=O)Cn2c(=O)oc3ccccc32)cc1", "hERG current change (%, negative = inhibition) at 1uM": 1.68},
      {"smiles": "Cc1ccc(N2C(=O)C(Cl)=C(NCCO)C2=O)c(C)c1", "hERG current change (%, negative = inhibition) at 1uM": 21.6},
      {"smiles": "O=C(O)c1ccc(/C=N/N2CCN(Cc3ccc(Cl)cc3)CC2)cc1", "hERG current change (%, negative = inhibition) at 1uM": 19.9},
      {"smiles": "Cc1ccc(C2N(c3ccccc3)C(=O)N3CCCN23)cc1", "note": "(centres unmarked)", "hERG current change (%, negative = inhibition) at 1uM": 7.78},
      {"smiles": "N#CCCN1CCN(S(=O)(=O)c2ccc(S(=O)(=O)NCc3ccccc3)cc2)CC1", "hERG current change (%, negative = inhibition) at 1uM": 12.2},
      {"smiles": "Cc1ccc(-n2c(C)c(C)c3c(NCCO)ncnc32)cc1", "hERG current change (%, negative = inhibition) at 1uM": 15.3},
      {"smiles": "COc1cc(/C=C2/C(=O)CNC2=O)ccc1O", "hERG current change (%, negative = inhibition) at 1uM": 11.8},
      {"smiles": "O=C(Nc1ccc(CN2CCCCC2)cc1)c1cc(Br)ccc1Cl", "hERG current change (%, negative = inhibition) at 1uM": 0.563},
      {"smiles": "COC(=O)CCCC1=CC2=CC(=O)C(C)(OC(=O)c3cnc4ccccc4n3)C(=O)C2=CO1", "note": "(centres unmarked)", "hERG current change (%, negative = inhibition) at 1uM": 12.2},
      {"smiles": "CCOc1cc(C(=O)NC(C)c2ccncc2)cc(OCC)c1OCC", "note": "(centres unmarked)", "hERG current change (%, negative = inhibition) at 1uM": -1.97},
      {"smiles": "Cc1cc(Br)ccc1NC(=O)CN(C)C(=O)CNC(=O)Cc1ccccc1", "hERG current change (%, negative = inhibition) at 1uM": 2.7},
      {"smiles": "Oc1c(CN2CCN(c3ccc(F)cc3)CC2)cc(Cl)c2cccnc12", "hERG current change (%, negative = inhibition) at 1uM": -1.49},
      {"smiles": "O=C(O)c1cccc(-c2ccc(/C=N/NC(=O)C3COc4ccccc4O3)o2)c1", "note": "(centres unmarked)", "hERG current change (%, negative = inhibition) at 1uM": 3.08},
      {"smiles": "COc1ccc(CCNC(=O)CCCOc2ccc(Cl)cc2)cc1OC", "hERG current change (%, negative = inhibition) at 1uM": 3.97},
      {"smiles": "O=C(NCC1CCCO1)c1ccccn1", "note": "(centres unmarked)", "hERG current change (%, negative = inhibition) at 1uM": -5.63},
      {"smiles": "CC(C)Cn1cnc2c(c(-c3ccccc3)c(-c3ccccc3)n2Cc2ccco2)c1=N", "hERG current change (%, negative = inhibition) at 1uM": -26.2},
      {"smiles": "CC(=O)Nc1ccc(S(=O)(=O)N[C@@H](C)C(=O)N2CCN(C/C=C/c3ccccc3)CC2)cc1", "hERG current change (%, negative = inhibition) at 1uM": 3.54},
      {"smiles": "COc1cc(/C=C/C(=O)OCC(=O)NC2CC2)cc(S(=O)(=O)N2CCc3ccccc32)c1OC", "hERG current change (%, negative = inhibition) at 1uM": 5.44},
      {"smiles": "COc1cc2[nH]c(=O)n(Cc3ccc(C(=O)NC4CCCC4)cc3)c(=O)c2cc1OC", "hERG current change (%, negative = inhibition) at 1uM": 10.1},
      {"smiles": "O=S1(=O)N=C2CCCCCN2C(c2ccc(F)cc2)N1", "note": "(centres unmarked)", "hERG current change (%, negative = inhibition) at 1uM": 6.31},
      {"smiles": "O=c1oc2ccccc2n1Cc1cccc(Cl)c1", "hERG current change (%, negative = inhibition) at 1uM": 9.95},
      {"smiles": "CC(=O)c1ccc(Nc2ccc(-c3ccccc3F)nn2)cc1", "hERG current change (%, negative = inhibition) at 1uM": 7.8},
      {"smiles": "CCc1cc(C(=O)Nc2cc(Cl)ccc2N2CCN(C)CC2)sc1C", "hERG current change (%, negative = inhibition) at 1uM": 10.4},
      {"smiles": "COc1ccc(/C(C)=N/NC2=NCCN2)cc1Cl", "hERG current change (%, negative = inhibition) at 1uM": 6.59},
      {"smiles": "CC(NC(=O)c1cc2cc(Br)ccc2oc1=N)c1ccccc1", "note": "(centres unmarked)", "hERG current change (%, negative = inhibition) at 1uM": 10.7},
      {"smiles": "Cc1ccc(S(=O)(=O)N2CCCC(C(=O)NCCCN3CCCCC3C)C2)cc1", "note": "(centres unmarked)", "hERG current change (%, negative = inhibition) at 1uM": -7.12},
      {"smiles": "CCOc1ccc(C(=O)NCC(=O)OCc2c(C)noc2C)cc1OCC", "hERG current change (%, negative = inhibition) at 1uM": 9.45},
      {"smiles": "CCc1ccc2[nH]c(=O)c(CN(CCCN3CCOCC3)C(=O)Nc3cccc(Cl)c3)cc2c1", "hERG current change (%, negative = inhibition) at 1uM": 4.63},
      {"smiles": "CCOC(=O)Cn1nc(NC(=O)c2ccc(C(=O)OC)cc2)cc1C", "hERG current change (%, negative = inhibition) at 1uM": 15},
      {"smiles": "CCSc1nnc(NC(=O)c2ccc3ccccc3n2)s1", "hERG current change (%, negative = inhibition) at 1uM": 5.73}
    ]}
  ]
}
